# From paper PMC9911399, “Two distinct binding modes provide the RNA-binding protein RbFox with extraordinary sequence specificity”
# Changes are numbered by the printed parent chain; changes in the protein carry UniProt numbers. The list shows a part of the results.
# T1: RBFOX1 RRM (Homo sapiens, UniProt Q9NWB1 109-208)
# T1 sequence: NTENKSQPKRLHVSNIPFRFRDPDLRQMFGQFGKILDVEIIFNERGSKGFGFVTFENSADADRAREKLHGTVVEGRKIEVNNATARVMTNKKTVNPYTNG
# B1: ACUAUCA (DNA:RNA)
# RNA: GGGAGACCGGAAUUCAGAUUGUCCACUAUCAUUAAAUCCCGUCGUAGCCACCA
# DNA 1: CAATCTGAATTCCGGTCTCCC
# DNA 2: TGGTGGCTACGACGGGATT
# B2: AUCGGUU (DNA:RNA)
# RNA: B1 RNA with C26U, U27C, A28G, U29G, C30U, A31U
# DNA 1: CAATCTGAATTCCGGTCTCCC
# DNA 2: TGGTGGCTACGACGGGATT
# B3: CUACUGC (DNA:RNA)
# RNA: B1 RNA with A25C, C26U, U27A, A28C, C30G, A31C
# DNA 1: CAATCTGAATTCCGGTCTCCC
# DNA 2: TGGTGGCTACGACGGGATT
# B4: CCUUGUG (DNA:RNA)
# RNA: B1 RNA with A25C, A28U, U29G, C30U, A31G
# DNA 1: CAATCTGAATTCCGGTCTCCC
# DNA 2: TGGTGGCTACGACGGGATT
# B5: CCGAGAA (DNA:RNA)
# RNA: B1 RNA with A25C, U27G, U29G, C30A
# DNA 1: CAATCTGAATTCCGGTCTCCC
# DNA 2: TGGTGGCTACGACGGGATT
# B6: UACACUU (DNA:RNA)
# RNA: B1 RNA with A25U, C26A, U27C, U29C, C30U, A31U
# DNA 1: CAATCTGAATTCCGGTCTCCC
# DNA 2: TGGTGGCTACGACGGGATT
# B7: CAAGAGC (DNA:RNA)
# RNA: GGGAGACCGGAAUUCAGAUUGUCCCAAGAGCUUAAAUCCCGUCGUAGCCACCA
# DNA 1: CAATCTGAATTCCGGTCTCCC
# DNA 2: TGGTGGCTACGACGGGATT
# B8: AAAUAUU (DNA:RNA)
# RNA: B7 RNA with C25A, G28U, G30U, C31U
# DNA 1: CAATCTGAATTCCGGTCTCCC
# DNA 2: TGGTGGCTACGACGGGATT
# B9: UAUUCGU (DNA:RNA)
# RNA: B7 RNA with C25U, A27U, G28U, A29C, C31U
# DNA 1: CAATCTGAATTCCGGTCTCCC
# DNA 2: TGGTGGCTACGACGGGATT
# B10: UCAAAUC (DNA:RNA)
# RNA: B7 RNA with C25U, A26C, G28A, G30U
# DNA 1: CAATCTGAATTCCGGTCTCCC
# DNA 2: TGGTGGCTACGACGGGATT
# B11: GCACCCA (DNA:RNA)
# RNA: B1 RNA with A25G, U27A, A28C, U29C
# DNA 1: CAATCTGAATTCCGGTCTCCC
# DNA 2: TGGTGGCTACGACGGGATT
# B12: AGGCAGU (DNA:RNA)
# RNA: B7 RNA with C25A, A26G, A27G, G28C, C31U
# DNA 1: CAATCTGAATTCCGGTCTCCC
# DNA 2: TGGTGGCTACGACGGGATT
# B13: UGGUGCC (DNA:RNA)
# RNA: B1 RNA with A25U, C26G, U27G, A28U, U29G, A31C
# DNA 1: CAATCTGAATTCCGGTCTCCC
# DNA 2: TGGTGGCTACGACGGGATT
# B14: UCAUGAG (DNA:RNA)
# RNA: B1 RNA with A25U, U27A, A28U, U29G, C30A, A31G
# DNA 1: CAATCTGAATTCCGGTCTCCC
# DNA 2: TGGTGGCTACGACGGGATT
# B15: UAUCGUA (DNA:RNA)
# RNA: B1 RNA with A25U, C26A, A28C, U29G, C30U
# DNA 1: CAATCTGAATTCCGGTCTCCC
# DNA 2: TGGTGGCTACGACGGGATT
# B16: GGGUUUU (DNA:RNA)
# RNA: B1 RNA with A25G, C26G, U27G, A28U, C30U, A31U
# DNA 1: CAATCTGAATTCCGGTCTCCC
# DNA 2: TGGTGGCTACGACGGGATT
# B17: GCGCUAA (DNA:RNA)
# RNA: B1 RNA with A25G, U27G, A28C, C30A
# DNA 1: CAATCTGAATTCCGGTCTCCC
# DNA 2: TGGTGGCTACGACGGGATT
# B18: AGCGUAG (DNA:RNA)
# RNA: B1 RNA with C26G, U27C, A28G, C30A, A31G
# DNA 1: CAATCTGAATTCCGGTCTCCC
# DNA 2: TGGTGGCTACGACGGGATT
# B19: UCCGUGU (DNA:RNA)
# RNA: B1 RNA with A25U, U27C, A28G, C30G, A31U
# DNA 1: CAATCTGAATTCCGGTCTCCC
# DNA 2: TGGTGGCTACGACGGGATT
# B20: UCAGAGU (DNA:RNA)
# RNA: B7 RNA with C25U, A26C, C31U
# DNA 1: CAATCTGAATTCCGGTCTCCC
# DNA 2: TGGTGGCTACGACGGGATT
# B21: ACCUGGU (DNA:RNA)
# RNA: B1 RNA with U27C, A28U, U29G, C30G, A31U
# DNA 1: CAATCTGAATTCCGGTCTCCC
# DNA 2: TGGTGGCTACGACGGGATT
# B22: UGUCUUA (DNA:RNA)
# RNA: B1 RNA with A25U, C26G, A28C, C30U
# DNA 1: CAATCTGAATTCCGGTCTCCC
# DNA 2: TGGTGGCTACGACGGGATT
# B23: AGCGUUG (DNA:RNA)
# RNA: B1 RNA with C26G, U27C, A28G, C30U, A31G
# DNA 1: CAATCTGAATTCCGGTCTCCC
# DNA 2: TGGTGGCTACGACGGGATT
# B24: AGACACU (DNA:RNA)
# RNA: B1 RNA with C26G, U27A, A28C, U29A, A31U
# DNA 1: CAATCTGAATTCCGGTCTCCC
# DNA 2: TGGTGGCTACGACGGGATT
# B25: CCUUGGG (DNA:RNA)
# RNA: B1 RNA with A25C, A28U, U29G, C30G, A31G
# DNA 1: CAATCTGAATTCCGGTCTCCC
# DNA 2: TGGTGGCTACGACGGGATT
# B26: CGGAAAU (DNA:RNA)
# RNA: B7 RNA with A26G, A27G, G28A, G30A, C31U
# DNA 1: CAATCTGAATTCCGGTCTCCC
# DNA 2: TGGTGGCTACGACGGGATT
# B27: GGGCGGG (DNA:RNA)
# RNA: B7 RNA with C25G, A26G, A27G, G28C, A29G, C31G
# DNA 1: CAATCTGAATTCCGGTCTCCC
# DNA 2: TGGTGGCTACGACGGGATT
# B28: AUAGCGG (DNA:RNA)
# RNA: B7 RNA with C25A, A26U, A29C, C31G
# DNA 1: CAATCTGAATTCCGGTCTCCC
# DNA 2: TGGTGGCTACGACGGGATT
# B29: UUUAUGG (DNA:RNA)
# RNA: B1 RNA with A25U, C26U, C30G, A31G
# DNA 1: CAATCTGAATTCCGGTCTCCC
# DNA 2: TGGTGGCTACGACGGGATT
# B30: CAUACGG (DNA:RNA)
# RNA: B7 RNA with A27U, G28A, A29C, C31G
# DNA 1: CAATCTGAATTCCGGTCTCCC
# DNA 2: TGGTGGCTACGACGGGATT
# B31: AUUGCGA (DNA:RNA)
# RNA: B1 RNA with C26U, A28G, U29C, C30G
# DNA 1: CAATCTGAATTCCGGTCTCCC
# DNA 2: TGGTGGCTACGACGGGATT
# Biological target: T1, RBFOX1 RRM
# Experiment: EMSA; HiTS-Eq, 1 nM pool, 10 min; buffer printed only for the single-RNA assays: 10 mM Tris pH 7.5, 150 mM NaCl, 3.4 mM EDTA, 0.001% NP-40, 30 C
# Settings: tags: His6 N-terminal (pET28a); label: 5' 32P
# Summary of the method: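 Purified RbFox RRM, wild type or mutant, was incubated for 10 min in 50 µL with 1 nM of a 5′-radiolabelled RNA pool carrying 7 randomized nucleotides, whose flanks were annealed to DNA oligonucleotides, over a series of increasing protein concentrations. Unbound RNA was resolved on 8% native PAGE, cut out, reverse-transcribed, barcoded by PCR and sequenced on an Illumina HiSeq 2500. Relative association constants were derived from changes in read counts for each RNA species versus the control reaction and normalised to the cognate motif.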
row,Binder,binding signal
1,B1,0.00217 KA relative to UGCAUGU
2,B2,0.0121 KA relative to UGCAUGU
3,B3,0.0129 KA relative to UGCAUGU
4,B4,0.0165 KA relative to UGCAUGU
5,B5,0.0108 KA relative to UGCAUGU
6,B6,0.00111 KA relative to UGCAUGU
7,B7,0.00561 KA relative to UGCAUGU
8,B8,0.00092 KA relative to UGCAUGU
9,B9,0.0188 KA relative to UGCAUGU
10,B10,0.000633 KA relative to UGCAUGU
11,B11,0.00375 KA relative to UGCAUGU
12,B12,0.0121 KA relative to UGCAUGU
13,B13,0.0219 KA relative to UGCAUGU
14,B14,0.0138 KA relative to UGCAUGU
15,B15,0.00791 KA relative to UGCAUGU
16,B16,0.0323 KA relative to UGCAUGU

row,Binder,binding signal
1,B17,0.0126 KA relative to UGCAUGU
2,B18,0.0147 KA relative to UGCAUGU
3,B19,0.0135 KA relative to UGCAUGU
4,B20,0.00735 KA relative to UGCAUGU
5,B21,0.0103 KA relative to UGCAUGU
6,B22,0.0106 KA relative to UGCAUGU
7,B23,0.0153 KA relative to UGCAUGU
8,B24,0.00426 KA relative to UGCAUGU
9,B25,0.00389 KA relative to UGCAUGU
10,B26,0.0202 KA relative to UGCAUGU
11,B27,0.0189 KA relative to UGCAUGU
12,B28,0.00769 KA relative to UGCAUGU
13,B29,0.00508 KA relative to UGCAUGU
14,B30,0.00363 KA relative to UGCAUGU
15,B31,0.0121 KA relative to UGCAUGU
